# From ChEMBL document CHEMBL1201862, “PubChem BioAssay data set” (2004)
# Tested on: NCI-H322M
# Experiment: growth of human tumour cells (NCI), 48 h
row,Compound,GI50
1,c1ccc2sc(SCSc3nc4ccccc4s3)nc2c1,inactive: > 100 µM
2,N#CC12C(=O)N3C(=NC(c4ccccc4)NC3c3ccccc3)C1(C#N)C(c1ccccc1)NC1=C2CCC1 (stereo not given),inactive: > 100 µM
3,Cc1cccc(C(C)(C)C)c1NC(=O)CCl,inactive: > 100 µM
4,Cn1nc2ccc([N+](=O)[O-])cc2[n+]1[O-],inactive: > 100 µM
5,COc1nc2ncc([C@@H](OC(C)=O)[C@@H](COC(C)=O)OC(C)=O)nc2c(=O)n1C,inactive: > 100 µM
6,O=C(O/N=c1/ccc(=O)/c(=N\OC(=O)c2ccccc2)c1=O)c1ccccc1,inactive: > 100 µM
7,C1=CC2CCC1CN2CCC1CNc2ccccc21 (stereo not given),inactive: > 100 µM
8,COc1cc(/C=C/C(=O)CC(=O)/C=C/c2cc(OC)c(O)c(OC)c2)cc(OC)c1O,inactive: 8.55 µM
9,CCOC(=O)C(C(=O)OCC)C(=O)c1ccccc1C(=O)c1ccccc1,inactive: > 100 µM
10,COc1ccccc1/C=C1\S/C(=N/Nc2nc(C)c(C(C)=O)s2)NC1=O,inactive: 68.4 µM
11,CCCCCCCC1(c2ccc(N)cc2)CCC(=O)NC1=O (stereo not given),inactive: 50.2 µM
12,COc1cc(/C=C/c2cccnc2)cc(OC)c1OC,inactive: > 100 µM
13,CC(=O)OC(C)(C)C1CCC(C)(C(O)COc2ccc(CCNC(=O)c3ccccc3)cc2)O1 (stereo not given),inactive: > 100 µM
14,Cc1ccc(C2(O)CS/C(=N\C34CC5CC(CC(C5)C3)C4)N2C(P(=O)(O)O)P(=O)(O)O)cc1 (stereo not given),inactive: 69.7 µM
15,CCOC(=O)Cn1c(C)nc2nn(Cc3ccccc3)cc2c1=O,inactive: > 100 µM
16,C1CSCCSCCS1,inactive: > 100 µM
17,COc1ccc(/C=C/COC(C)=O)cc1OC,inactive: > 100 µM
18,CC1=NNC(=O)[C@H]2[C@H]1CCC1[C@@H]2CC[C@]2(C)[C@@H](O)CC[C@@H]12 (stereo not given in full),inactive: > 100 µM
19,NC(=O)C(c1ccccc1)N1OC2C(=O)N(c3ccccc3)C(=O)C2C1c1c2ccccc2c(Cl)c2ccccc12 (stereo not given),inactive: > 100 µM
20,O=C1CNc2cc(N3CCN(c4ccccc4)CC3)ccc2N1,inactive: > 100 µM
21,C[C@]12Cc3conc3C(O)=C1CC[C@@H]1C2CC[C@@]2(C)C1CC[C@]2(C)O (stereo not given in full),inactive: 29.5 µM
22,CN(C)/C=N/S(=O)(=O)c1nn2c(C=O)c(-c3ccc([N+](=O)[O-])cc3)nc2s1,inactive: 20.7 µM

row,Compound,GI50
1,COC(=O)C1C=CCON2CCc3c(n(S(=O)(=O)c4ccccc4)c4ccccc34)C12 (stereo not given),inactive: > 100 µM
2,COc1cccc(NC(=O)C(=O)C2C=CCS2(=O)=O)c1 (stereo not given),inactive: > 100 µM
3,C=C(C)C12CC3CC(/C(=N/O)C(C1)/C3=N\O)[C@@]2(C)O (stereo not given in full),inactive: > 100 µM
4,CN(C)c1ccc(C(=NN)c2ccc(N(C)C)cc2)cc1,inactive: 2.99 µM
5,CCc1ccccc1NC(=O)C(=O)C(C#N)c1c(Cl)cccc1Cl (stereo not given),inactive: > 100 µM
6,COc1cc([N+](=O)[O-])c(S(=O)(=O)O)cc1N,inactive: > 100 µM
7,COC1C=COC2(C)Oc3c(C)c(O)c4c(O)c(c(C5SCCS5)c(O)c4c3C2=O)NC(=O)C(C)=C/C=C\C(C)C2OC(C)(C)OC(C2C)C(C)C(OC(C)=O)C1C (stereo not given),inactive: 16.6 µM
8,c1ccc2c3c([nH]c2c1)C1CCCN1CC3 (stereo not given),inactive: > 10 µM
9,Oc1nc(-c2ccc3ccccc3c2)nc2ccccc12,inactive: > 100 µM
10,O=[N+]([O-])c1ccc2nc(/C(=N/Nc3ccccc3)C(O)c3ccc(C(O)/C(=N\Nc4ccccc4)c4nc5ccc([N+](=O)[O-])cc5nc4O)cc3)cnc2c1 (stereo not given),inactive: 76.2 µM
11,Cc1c2ccccc2cc2nc3ccccc3n12,inactive: > 10 µM
12,C/C(=N/O)c1cccc(Nc2nc3ccccc3c3[nH]c4ccccc4c23)c1,inactive: 1.72 µM
13,Fc1cccc(C2SCC3=Nc4ccccc4CN32)c1 (stereo not given),inactive: 39.7 µM
14,CC1CC(=O)CC[C@@H]1OCc1ccccc1 (stereo not given in full),inactive: > 100 µM
15,N[C@@H]1c2c(Br)sc(Br)c2[C@H](O)[C@@H]1O,inactive: > 100 µM
16,O=C1C=CC(=O)c2ncccc21,inactive: 9.68 µM
17,Cc1ccc(S(=O)(=O)Nn2c(C)cc3ccc(S(=O)(=O)Nc4ccccc4[N+](=O)[O-])cc3c2=O)cc1,inactive: > 100 µM
18,CC1=C(\C=C/C(C)=C/C=C/C(C)=C/C=C/C=C(C)\C=C\C=C(C)/C=C/C2=C(C)CCCC2(C)C)C(C)(C)CCC1,inactive: > 100 µM
19,COc1cc2c(cc1OC)[C@@H]([C@H](O)c1ccccc1)NCC2,inactive: > 100 µM
20,Cc1ccc2c(=O)c(C(=O)N(CCO)CCO)c[nH]c2n1,inactive: > 100 µM
21,COc1cc(/N=N/c2cccc(S(N)(=O)=O)c2)c2ccccc2c1N,inactive: 14.4 µM
22,O=c1c2ncn(C3CC(O)C(CO)O3)c2nnn1Cc1ccccc1[N+](=O)[O-] (stereo not given),inactive: > 100 µM

row,Compound,GI50
1,Cc1ccc(C(C2C(=O)N(C)C(=O)N(C)C2=O)C(F)(F)C(=O)N(C)C)cc1 (stereo not given),inactive: > 100 µM
2,O=C(O)C(/C=C/c1ccccc1)c1ccccc1 (stereo not given),inactive: > 100 µM
3,Cn1c2ccccc2n2c(=O)c3cccnc3c(C#N)c12,inactive: > 100 µM
4,COc1cc(OC(C)=O)cc2c(OC(C)=O)ccc(OC(C)=O)c12,inactive: > 100 µM
5,NS(=O)(=O)c1ccc(/C=C/c2ccc(F)cc2)cc1,inactive: 34.1 µM
6,CNC(=O)c1cccc2c(Nc3ccc(NS(C)(=O)=O)cc3OC)c3cccc(C)c3nc12,inactive: 4.71 µM
7,CCCCCCCCCCCCCCCCOCC(Cl)COP(=O)(O)OP(=O)(O)OCC1OC(n2cnc3c(N)ncnc32)C(O)C1O (stereo not given),inactive: > 100 µM
8,COC1CC(OC2C(C)OC(OC3C(C)OC(OC4C(C)OC(O[C@H]5CC[C@@]6(C)C(=CC[C@]7(O)[C@@H]6C[C@@H](OC(=O)/C=C/c6ccccc6)[C@@]6(C)[C@]7(O)CC[C@@]6(O)C(C)=O)C5)CC4OC)CC3OC)CC2OC)OC(C)C1O (stereo not given in full),inactive: > 12.5 µM
9,COC(=O)C1N=CSCC1(C)O (stereo not given),inactive: > 100 µM
10,COC(=O)c1cc(=O)n(-c2ccc3nn(C)nc3c2)cc1C(=O)OC,inactive: > 100 µM
11,CC(C)(C)C(=O)OCC1CCC(n2cnc3c(=O)[nH]c(N)nc32)O1 (stereo not given),inactive: > 100 µM
12,CC(C)=CC[C@]12CCN[C@H]1N(S(=O)(=O)c1ccccc1)c1ccccc12,inactive: 21.2 µM
13,N#CCCC1(CCC#N)CCCCCCCCC(CCC#N)(CCC#N)C(=O)C1=O,inactive: > 100 µM
14,CCOC(=O)C(OCC1CC=CCC1)Sc1ccccc1 (stereo not given),inactive: > 100 µM
15,CCN(CC)CC1CCCCN1CC(=O)N1c2cc(Cl)ccc2NC(=O)CC1C (stereo not given),inactive: > 100 µM
16,COc1ccc(C2c3c(n(C)c(=O)n(C)c3=O)OC(N(C)C)(N(C)C)C2(F)F)cc1 (stereo not given),inactive: > 100 µM
17,CCOC(=O)c1cc(C2(OC)CCN(Cc3ccccc3)C2=O)c(-c2cc(C)no2)[nH]1 (stereo not given),inactive: > 100 µM
18,O=C(N/N=C(COc1cccc(Cl)c1)\N=C\c1cccnc1)c1ccncc1,inactive: > 100 µM
19,O[C@H]1[C@H](O)[C@H](O)CN2CCC[C@@H](O)[C@H]12,inactive: > 100 µM
20,CC(C)Oc1cccc(N2C(Nc3ccccc3)=Nc3ccncc3S2(=O)=O)c1,inactive: 43.3 µM
21,[O-]c1c[n+](-c2ccccc2)no1,inactive: > 100 µM

#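 The compound was tested at five concentrations on cells cultured in 96-well plates, with a 48-hour exposure period. Abbreviation: GI50, concentration required for 50% inhibition of growth.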 Active and inactive are the calls of the source. Rule as the data show it: active = GI50 up to about 1.1 µM and inactive = higher.
